Results from the supplement of paper PMC9446081.
In all, about 39,000 compounds went through this assay and about 220 (0.56%) showed activity. The list shows a part of the results.

system: Escherichia coli K-12 BW25113; experiment: relative growth (OD600 normalised to plate interquartile mean) (fraction); higher = less growth inhibition, active = 0.2 or less; details: 50 µM; LB; incubation time: overnight (16-24 h)
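Also: static incubation at 37 °C against the wild-type strain, values averaged over two biological replicates.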

SMILES | relative growth
COCC#Cc1cnc2c(c1)C(=O)N([C@H](C)CO)C[C@@H](C)[C@H](CN(C)C(=O)Nc1ccc(OC)cc1)O2 | inactive: 1.01
C[C@H]1CN([C@@H](C)CO)C(=O)Cc2cc(NC(=O)C3CC3)ccc2O[C@@H]1CN(C)Cc1ccc(Oc2ccccc2)cc1 | inactive: 0.949
Cc1ccc(S(=O)(=O)N(C)C[C@H]2Oc3ncc(-c4ccncc4)cc3C(=O)N([C@@H](C)CO)C[C@H]2C)cc1 | inactive: 0.957
COc1ccc(NC(=O)N(C)C[C@@H]2Oc3c(NC(=O)C4CC4)cccc3C(=O)N([C@@H](C)CO)C[C@H]2C)cc1 | inactive: 0.963
C[C@@H]1CN([C@@H](C)CO)C(=O)Cc2cc(NC(=O)c3ccncc3)ccc2O[C@@H]1CN(C)S(C)(=O)=O | inactive: 1.02
C[C@@H]1CN([C@@H](C)CO)C(=O)c2cc(NC(=O)c3ccncc3)ccc2O[C@@H]1CN(C)Cc1ccc(-c2ccccc2)cc1 | inactive: 0.895
COc1ccc(CN(C)C[C@H]2OCCCC[C@H](C)Oc3ccc(NC(=O)Nc4cccc5ccccc45)cc3C(=O)N([C@H](C)CO)C[C@H]2C)cc1 | inactive: 1.06
C[C@H](CO)N1C[C@H](C)[C@@H](CN(C)Cc2ccc(Cl)c(Cl)c2)Oc2ccc(NS(=O)(=O)c3ccc(F)cc3)cc2C1=O | inactive: 1.01
C/C=C/C1=C(C(=O)O)N2C(=O)[C@@H](NC(=O)[C@H](N)c3ccc(O)cc3)[C@H]2SC1 | inactive: 0.876
C[C@@H]1CN([C@@H](C)CO)C(=O)Cc2cc(NC(=O)Nc3ccc4c(c3)OCO4)ccc2O[C@@H]1CN(C)S(C)(=O)=O | inactive: 0.742
Clc1cccn2nnnc12 | inactive: 1
Cc1noc(C)c1S(=O)(=O)Nc1ccc2c(c1)CC(=O)N([C@@H](C)CO)C[C@@H](C)[C@@H](CN(C)C(=O)NC(C)C)O2 | inactive: 1
C[C@H]1CN([C@@H](C)CO)C(=O)c2cccc(NC(=O)Nc3ccc(C(F)(F)F)cc3)c2O[C@H]1CN(C)C(=O)Nc1ccc(F)cc1 | inactive: 0.913
NC(=O)[C@H]1CSCCC(=O)N1 | inactive: 0.977
CNC(=O)c1c(F)cccc1Nc1nc(Nc2cc3c(cc2OC)CCN3C(=O)CN(C)C)nc2[nH]ccc12 | inactive: 0.996
COCCCNC(=O)[C@@]1(CCS(=O)(=O)c2ccccc2)COC(c2ccc(OCCCO)cc2)=N1 | inactive: 1.01
CC(C)(C)OC(=O)C[C@@H]1CC=CC[C@@H](CC(=O)N[C@@H](CO)Cc2ccccc2)C(=O)N[C@@H](C(C)(C)C)COC1=O | inactive: 1
CO[C@@H]1CN(C)C(=O)c2cc(NC(=O)CC(F)(F)F)ccc2OC[C@@H](C)N(C(=O)C2CCOCC2)C[C@@H]1C | inactive: 1.02
CC(C)CNC(=O)CSc1nnc[nH]1 | inactive: 0.976
C[C@H](CO)N1C[C@H](C)[C@H](CN(C)C(=O)Nc2ccc(C(F)(F)F)cc2)Oc2ccc(NC(=O)Cc3cn(C)c4ccccc34)cc2C1=O | inactive: 1.01
C[C@@H]1CN([C@@H](C)CO)C(=O)c2cc(C#CCc3ccccc3)cnc2O[C@H]1CN(C)CC1CCOCC1 | inactive: 0.99

SMILES | relative growth
COc1ccc(S(=O)(=O)Nc2ccc3c(c2)CC(=O)N([C@H](C)CO)C[C@@H](C)[C@H](CN(C)CC2CC2)O3)cc1 | inactive: 0.976
COc1ccc(NC(=O)Nc2ccc3c(c2)C(=O)N([C@@H](C)CO)C[C@H](C)[C@@H](CN(C)S(=O)(=O)c2ccccc2)OCCCC[C@H](C)O3)cc1 | inactive: 1.02
Nc1ccn([C@H]2CC[C@@H](CO)O2)c(=O)n1 | inactive: 0.974
O=C(NCCCn1ccnc1)C(=O)NC[C@H]1OCCN1S(=O)(=O)c1ccc(F)cc1 | inactive: 1.01
CN1CCN(C(=O)C[C@@H]2CC[C@@H]3[C@H](COC[C@H](O)CN3Cc3ccc(Oc4ccccc4)cc3)O2)CC1 | inactive: 0.995
COc1ccc(S(=O)(=O)Nc2ccc3c(c2)C(=O)N([C@@H](C)CO)C[C@@H](C)[C@@H](CN(C)C(=O)CCC(F)(F)F)OCCCC[C@H](C)O3)cc1 | inactive: 0.972
Cn1cnc(S(=O)(=O)N2C[C@@H](O)COC[C@H]3O[C@H](CC(=O)NC4CCCC4)CC[C@@H]32)c1 | inactive: 1.02
C[C@@H]1CN([C@@H](C)CO)C(=O)Cc2cc(NC(=O)Cc3cn(C)c4ccccc34)ccc2O[C@H]1CN(C)Cc1ccc(Cl)c(Cl)c1 | inactive: 0.968
O=c1nc[nH]c2c1ncn2[C@@H]1C[C@@H](O)[C@H](CO)O1 | inactive: 0.998
C[C@H](CO)N1C[C@H](C)[C@@H](CN(C)Cc2ccccn2)Oc2cc(C#CCN(C)C)ccc2S1(=O)=O | inactive: 0.991
COc1ccc(-c2cnc3c(c2)C(=O)N([C@@H](C)CO)C[C@H](C)[C@H](CN(C)C(=O)Cc2ccncc2)O3)cc1 | inactive: 0.988
CN(C)C(=O)C[C@H]1CC[C@H]2[C@@H](COC[C@H](O)CN2S(=O)(=O)c2ccccc2)O1 | inactive: 0.997
C[C@H]1CN([C@@H](C)CO)C(=O)Cc2cc(NC(=O)CCC(F)(F)F)ccc2O[C@H]1CN(C)Cc1ccc(Cl)c(Cl)c1 | inactive: 1.01
O=C(CN1CCOCC1)N[C@@H]1CC[C@H](CCNC(=O)C2CCC2)O[C@H]1CO | inactive: 0.992
COc1ccc(CN(C)C[C@@H]2Oc3ccc(NC(=O)CCN4CCOCC4)cc3CC(=O)N([C@@H](C)CO)C[C@H]2C)cc1 | inactive: 0.988
C[C@H]1CCCCO[C@H](CN(C)Cc2ccncc2)[C@@H](C)CN([C@@H](C)CO)C(=O)c2cc(NC(=O)Nc3ccc(F)cc3)ccc2O1 | inactive: 0.988
Cc1nc(Cn2cnc3c2c(=O)n(C)c(=O)n3C)no1 | inactive: 1.01
C[C@H]1CN([C@@H](C)CO)C(=O)c2cc(NC(=O)Nc3cccc4ccccc34)ccc2O[C@H]1CN(C)Cc1ccc2c(c1)OCO2 | inactive: 1.02
CN(C)C(=O)C[C@H]1C=C[C@@H](NC(=O)C2CC2)[C@@H](CO)O1 | inactive: 0.991
Clc1ccc(/C=N/Cc2ccc(-c3cccs3)s2)cc1 | inactive: 0.97
